From the supplement of paper PMC4723716
± gives the uncertainty stated by the source. In all, about 9,900 compounds were measured (“viability index relative to DMSO control”: median about 1, lowest 2% from about 0.85 on). The list shows a part of the results.

System: Plasmodium falciparum NF54 stage V gametocytes
Assay: viability index relative to DMSO control (fraction); higher = less gametocyte killing
Details: 2.5 µM, incubation time: 72 h
Summary of the method: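 P. falciparum NF54 stage V gametocytes in serum-free screening medium (0.75% gametocytemia, 1.25% hematocrit, 10 µl) were incubated with compound at 2.5 µM in 1,536-well plates for 72 hr at 37°C under low oxygen. Then 3 µl of 2.5 µM MitoTracker Red CMXRos plus 0.13% saponin was added for one to two hours. One field per well was imaged, 20–70 µm2 red particles were counted, and the viability index was the count divided by the plate mean of DMSO wells.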

[1] = library set: Broad Institute DOS

Structure (SMILES)	viability index [1]	viability index (library set: Broad Institute Blood Stage)
CN1C(=O)c2cc(NS(C)(=O)=O)ccc2OC[C@@H]2O[C@@H](CC(=O)NCc3ccccc3)CC[C@H]21	1.13 ± 0.11	
CN1C(=O)c2cc(NC(=O)Nc3cccc(C#N)c3)ccc2OC[C@H]2O[C@@H](CC(=O)Nc3ccc4c(c3)CCC4)CC[C@@H]21	1.04 ± 0.081	
O=C(C[C@H]1C=C[C@H](NC(=O)Nc2ccccc2F)[C@H](CO)O1)NCc1ccc(-c2ccccc2)cc1	1.06 ± 0.066	
O=C(Cc1ccccn1)N[C@@H]1CC[C@H](CCNS(=O)(=O)c2cccc(F)c2)O[C@@H]1CO	1.02 ± 0.015	
O=C(c1cccc(F)c1)N1CC(=O)N2[C@H](C1)[C@@H](c1ccc(-c3cccnc3)cc1)[C@@H]2CO		0.817 ± 0.042
O=C(C1CCC1)N1CC(=O)N2[C@H](CO)[C@H](c3ccc(Br)cc3)[C@H]2C1	1.04 ± 0.012	
C/C=C/c1ccc([C@H]2[C@H]3CNC[C@@H]2N3S(=O)(=O)c2c(C)noc2C)cc1	0.956 ± 0.02	
O=C(C[C@H]1C[C@H]2c3cc(NC(=O)c4ccc5c(c4)OCO5)ccc3O[C@H]2[C@H](CO)O1)NCCN1CCCCC1	1.05 ± 0.031	
CO[C@H](CN(C)C(=O)C1CCOCC1)[C@@H](C)CN(C(=O)Nc1ccc(C(F)(F)F)cc1)[C@@H](C)CO	1.01 ± 0.056	
O=C(Nc1cccc(Cl)c1)N[C@@H]1CC[C@@H](CCn2cc(Cc3ccccc3)nn2)O[C@H]1CO	1.13 ± 0.06	
CCS(=O)(=O)N1C[C@@]2(C1)CN(C)[C@@H](CO)c1c2c2ccc(OC)cc2n1C	1.09 ± 0.099	
O=C(c1cccnc1)N1CC2(C1)[C@@H](c1ccccc1)[C@@H](CO)N2C(=O)CC1CC1	1.1 ± 0.013	
CC(C)C#Cc1ccc([C@@H]2[C@H]3CN(C(=O)c4ccc5c(c4)OCO5)CC(=O)N3[C@H]2CO)cc1	1.18 ± 0.046	
C/C=C/c1cnc2c(c1)C(=O)N([C@@H](C)CO)C[C@@H](C)[C@@H](CN(C)CC1CCOCC1)O2	1.06 ± 0.042	
CCCNC(=O)N1C[C@@H](O)COC[C@H]2O[C@H](CC(=O)OC)CC[C@@H]21	1.01 ± 0.076	
CCS(=O)(=O)Nc1ccc2c(c1)C(=O)N(C)C[C@@H](OC)[C@@H](C)CN(C(=O)c1ccc3c(c1)OCO3)[C@H](C)CO2	1.13 ± 0.031	
C[C@@H]1C(=O)N[C@H](c2ccc3c(c2)OCO3)C/C=C/C[C@H](C)Oc2ccccc2C(=O)N1C.C[C@@H]1C(=O)N[C@H](c2ccc3c(c2)OCO3)C/C=C\C[C@H](C)Oc2ccccc2C(=O)N1C	1.05 ± 0.03	
CO[C@H](CN(C)Cc1ccc2c(c1)OCO2)[C@@H](C)CN(C(=O)Nc1ccc(F)cc1)[C@@H](C)CO	1.043 ± 0.0038	

Structure (SMILES)	viability index [1]	viability index (library set: Broad Institute Blood Stage)
O=C(C[C@H]1CC[C@H]2[C@@H](COC[C@@H](O)CN2S(=O)(=O)c2cccc(F)c2)O1)NCc1ccncn1	1.01 ± 0.025	
O=C(Nc1ccccc1F)N1CCCCN2[C@H](CO)[C@@H](c3ccc(/C=C/c4ccccc4)cc3)[C@@H]2C1	0.961 ± 0.019	
CN1c2ccc(C3=CCCCC3)cc2[C@@H]2[C@@H](CCN2C(=O)Cc2ccccn2)[C@H]1CO	1 ± 0.12	
COc1ccc(-c2ccc3c(c2)[C@H]2[C@H](CCN2C(=O)c2cccc(F)c2)[C@@H](CO)N3)cc1	0.942 ± 0.075	
COc1ccccc1S(=O)(=O)N(C)C[C@@H]1OCc2ccccc2-c2ccccc2C(=O)N([C@H](C)CO)C[C@H]1C	0.9925 ± 0.0063	
C[C@@H]1CCCCO[C@H](CN(C)Cc2ccc3c(c2)OCO3)[C@@H](C)CN([C@@H](C)CO)C(=O)c2cc(NS(=O)(=O)c3cn(C)cn3)ccc2O1	1.09 ± 0.032	
CC(C)CC#Cc1ccc([C@@H]2[C@@H](CO)N3C(=O)CN(C(=O)Nc4cc(F)ccc4F)C[C@H]23)cc1	1.1 ± 0.048	
CO[C@H]1CC[C@H]2CCOc3c(C#N)cccc3C(=O)N(C)CC3(CCCCC3)CC(=O)N(C)C[C@H]1O2	1.02 ± 0.035	
CO[C@@H](CN(C)S(=O)(=O)c1ccc(C)cc1)[C@H](C)CN([C@H](C)CO)S(=O)(=O)c1cccc(Cl)c1	1.01 ± 0.035	
C/C=C/c1ccccc1[C@@H]1[C@@H](C#N)N(C(=O)c2cccnc2)[C@@H]1CO	1.09 ± 0.013	
O=C(C[C@H]1C[C@@H]2c3cc(NS(=O)(=O)c4ccc(F)cc4)ccc3O[C@@H]2[C@H](CO)O1)NCc1cccnc1	1.06 ± 0.033	
C[C@H](CO)N1C[C@H](C)[C@@H](CN(C)S(=O)(=O)c2cn(C)cn2)Oc2ccc(NC(=O)C3CC3)cc2CC1=O	0.865 ± 0.1	
N#C[C@H]1[C@@H](c2ccc(/C=C/c3ccccc3)cc2)[C@@H](CO)N1C(=O)Cc1ccccn1	1.06 ± 0.1	
CO[C@@H]1CN(C)C(=O)c2cc(NC(=O)c3cccc(F)c3)ccc2OC[C@H](C)N(C)C[C@@H]1C	0.946 ± 0.077	
CN1CCN(C(=O)[C@@H]2[C@@H](CO)[C@@H]3Cn4c(ccc(-c5ccncc5)c4=O)[C@@H]3N2CC2CC2)CC1	1.03 ± 0.043	
O=C(Nc1ccccc1F)N1CC(=O)N2[C@H](CO)[C@H](c3ccc(-c4cccnc4)cc3)[C@@H]2C1	0.977 ± 0.017	
CC(C)NC(=O)N[C@@H]1CC[C@H](CC(=O)NCCCN(C)C)O[C@@H]1CO	0.896 ± 0.11	
